Experimental data reported in PMC2724708, “Adenosine Kinase of T. b. rhodesiense Identified as the Putative Target of 4-[5-(4-phenoxyphenyl)-2H-pyrazol-3-yl]morpholine Using Chemical Proteomics” (PLoS Neglected Tropical Diseases, 2009).

Molecular target: T1, adenosine kinase of T. b. rhodesiense (TbrAK) (Trypanosoma brucei rhodesiense, UniProt Q584S0)
T1 sequence (Q584S0 1-345): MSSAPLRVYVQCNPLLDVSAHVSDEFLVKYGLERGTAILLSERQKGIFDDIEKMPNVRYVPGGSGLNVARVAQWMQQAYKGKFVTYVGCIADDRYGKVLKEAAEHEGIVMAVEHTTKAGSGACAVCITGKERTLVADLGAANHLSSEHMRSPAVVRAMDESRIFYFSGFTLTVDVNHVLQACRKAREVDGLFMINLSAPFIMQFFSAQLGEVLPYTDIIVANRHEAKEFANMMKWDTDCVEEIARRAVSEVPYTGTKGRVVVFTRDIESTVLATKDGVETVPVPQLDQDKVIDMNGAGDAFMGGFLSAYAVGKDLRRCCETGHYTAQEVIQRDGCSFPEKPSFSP
Assay: Isothermal titration calorimetry (ITC) with TbrAK
Format: binding
Experimental: Isothermal titration calorimetry (ITC) was employed to elucidate the binding affinity of compound 1 toward TbrAK. All solutions were degassed for 5 min with gentle stirring under vacuum. TbrAK was dialyzed into buffer E2 (20 mM Tris, 150 mM NaCl, pH 7.5, 5% glycerol), diluted to 7 µM and supplemented with 1% DMSO, filtered and filled into the sample cell. The ligand solution was prepared by diluting a stock solution of compound 1 or 5 in DMSO with buffer E2 to give a final concentration of 150 µM and 1% DMSO. The final ligand solution was filtered before use. A titration experiment consisted of a first control injection of 1 µl followed by 27 injections, each of 10 µl and 20 s duration, with a 4-min interval in between. Raw data were collected, corrected for ligand heats of dilution, integrated and fit to the two-set non-interacting binding sites model using the Origin® software supplied with the instrument. The measurements were performed at least in duplicate.

Structure (SMILES): c1ccc(Oc2ccc(-c3cc[nH]n3)cc2)cc1 [compound 5, 3-(4-phenoxyphenyl)-1H-pyrazole]
- specific heat release on titration of TbrAK: no specific heat release
